Source: PubChem BioAssay (NCI)
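Values below derive from 48-hour exposures of cells grown in 96-well plates, with endpoints linearly interpolated between the two concentrations bracketing the appropriate inhibition level. The concentration for 50% growth inhibition is given as GI50. TGI denotes the concentration required for complete inhibition of growth.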

Test system: NCI-H322M lung
Assay: growth of human tumour cells (NCI), 48 h

Structure (SMILES)	GI50 [µM]	TGI [µM]
CCCCNC(=S)Nc1ccc(OCc2nc3ccc(Cl)cc3[nH]2)cc1	10.4	22.2
C=C1CCC2C3(C)COC(c4cccc(F)c4)OC3CCC2(C)C1C/C=C1/C(=O)OCC1O (centres undefined)	10.9	22.9
